The text below walks through data of article PMC7819943, “Rice protein-binding microarrays: a tool to detect cis-acting elements near promoter regions in rice”.

The other results are listed elsewhere or left out.

In the assay the target is T1, OsWOX13 (Oryza sativa, UniProt Q5QMM3 1-267).
T1 sequence: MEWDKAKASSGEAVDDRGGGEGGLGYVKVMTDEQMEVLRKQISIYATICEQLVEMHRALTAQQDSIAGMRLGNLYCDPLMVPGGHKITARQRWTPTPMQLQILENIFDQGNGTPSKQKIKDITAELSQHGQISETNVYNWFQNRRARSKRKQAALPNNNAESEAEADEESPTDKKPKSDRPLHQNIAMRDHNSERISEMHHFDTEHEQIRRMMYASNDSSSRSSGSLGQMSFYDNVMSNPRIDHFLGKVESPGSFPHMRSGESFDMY
Briefly: protein-binding microarray (RPBM); PBS, 2% BSA, 51.3 ng/ul salmon testes DNA, 50 uM zinc acetate, 200 nM TF, 25 C, 1 h; high values mean tight binding. The conditions noted are these: protein: recombinant; tags: N-terminal polyhistidine and DsRed monomer fusion (pET32a); label: CyDye5-dUTP incorporated in the synthesized complementary strand; 3' TTTTT single-stranded linker to array surface; dsDNA, one strand shown. In a few lines:
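In PBS with 2% BSA, salmon testes DNA and 50 µM zinc acetate, 200 nM protein was incubated on a custom Agilent array at 25 °C for 1 h and then washed off. The array had been made double-stranded by primer extension with Cy5-dUTP and blocked with 2% BSA. The proteins were transcription factors fused N-terminally to polyhistidine and DsRed, expressed in E. coli BL21-CodonPlus and purified on Ni–NTA. The binding signal is per-feature fluorescence intensity (arbitrary units) from an Axon 4000B scanner.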
As for “TGTTATCTCAATCGGACCCTAAATTGGAGCCCGTCACGTGCGGAGTCACCTAGTGCAG”, the binding signal is 5520 fluorescence intensity (a.u.).
The figure for “ACATGATAATACTTACTCAATCAAATACTACGAGCAACCTCGGAGTCACCTAGTGCAG” is 4660 fluorescence intensity (a.u.); for “GGTTAATTGCCTGTCTGCGTGGGAGTTACCTCCACACAGCCGGAGTCACCTAGTGCAG” it is 46200 fluorescence intensity (a.u.).
With “CAAAACTGAGTACATTGGATTGGACCATCTAAAAGGAAATCGGAGTCACCTAGTGCAG”, the binding signal is 4580 fluorescence intensity (a.u.).
Next, “CCTTGCAATCATTCATCAGAGGAGGAGTTCTACAGTGATGCGGAGTCACCTAGTGCAG”: 3760 fluorescence intensity (a.u.); “AAGAACCAATCAACCAACCATGCACCATCCAACGAAAATGCGGAGTCACCTAGTGCAG”: 3910 fluorescence intensity (a.u.); “AATTTCACTGTTAACAGATAGGCATGCATTGGGTGAGAGTCGGAGTCACCTAGTGCAG”: 3650 fluorescence intensity (a.u.).
With “ATAGTTTGATTACGTGCATTTTAATTATGTAGAGATTTGGCGGAGTCACCTAGTGCAG”, the binding signal is 15000 fluorescence intensity (a.u.).
Next, “TTAATTGTAGTATAATTACGGTAAAATTATATTACAATTTCGGAGTCACCTAGTGCAG”: 21100 fluorescence intensity (a.u.); “ACAAATTTATTGTTATCAATGATGGCCATGATTATTCGGTCGGAGTCACCTAGTGCAG”: 38200 fluorescence intensity (a.u.).
On to “TCATTAATTTGAAAGGGAAGATTAAGCTCAATGCAGGAGTCGGAGTCACCTAGTGCAG”, for which the binding signal was 28800 fluorescence intensity (a.u.).
On to “GTAGAAATTTGTTATATGATAATATTATAATTACTAGCTTCGGAGTCACCTAGTGCAG”, for which the binding signal is 5320 fluorescence intensity (a.u.).
Next, “TTAAATGGTGAAGAAATTGAAGAAGGGGCTTCGATGGCAGCGGAGTCACCTAGTGCAG”: 8370 fluorescence intensity (a.u.); “TTTTCATAAATTTGGATAAACAATCTAGTACTTACTGGGACGGAGTCACCTAGTGCAG”: 3150 fluorescence intensity (a.u.).
The figure for “ATTATTTAGTAAAATTGACAATCATGTTGTTGCATTTAGTCGGAGTCACCTAGTGCAG” is 16000 fluorescence intensity (a.u.).
Next, “TCTGTAATTGAACGAGTCAATAGCTAGAGCTGTCAGACAGCGGAGTCACCTAGTGCAG”: 20800 fluorescence intensity (a.u.); “TGTGACATGATTGTGTGTCCACCAATCTATGAAACATCATCGGAGTCACCTAGTGCAG”: 37800 fluorescence intensity (a.u.).
Consider “TTTATGGTCTTCCAATCACGGGCCGTAATTAAGGCCTATGCGGAGTCACCTAGTGCAG”, for which the binding signal was 25300 fluorescence intensity (a.u.).
Consider “CTAAACTGAAAATAGGAAATAAATAAGTTGATCTCCCTAACGGAGTCACCTAGTGCAG”, for which the binding signal is 3750 fluorescence intensity (a.u.).
The figure for “ATATAATTACATGTATCTATCTGAACGAACATGTACTGCGCGGAGTCACCTAGTGCAG” is 26200 fluorescence intensity (a.u.); for “ACATTCATATTGATGTTAATGATTCTAGACATATATATCTCGGAGTCACCTAGTGCAG” it is 4710 fluorescence intensity (a.u.).
Next, “CTTTGACTTAATATAACCACCACATTTGCCTTTTGACTTTCGGAGTCACCTAGTGCAG”: 6940 fluorescence intensity (a.u.); “TGCTTAAATTTATAGCTTTCTAATAAATTTGTTCATTTAGCGGAGTCACCTAGTGCAG”: 14700 fluorescence intensity (a.u.); “AAAACGGAATGATAGATTAACATATAATTAATTAAGTATTCGGAGTCACCTAGTGCAG”: 19300 fluorescence intensity (a.u.).
“TTAGATTGGATCATGACGCCAATGTTATTGGTGCTATTAGCGGAGTCACCTAGTGCAG”: the binding signal is 33600 fluorescence intensity (a.u.).
The figure for “CCTTAATTAATTAATTTCTAGATCTCAAGAGGGCAACAGACGGAGTCACCTAGTGCAG” is 57200 fluorescence intensity (a.u.); for “TTTAATTGCAACGAATTTAATGGTGTAATCGGATCATGATCGGAGTCACCTAGTGCAG” it is 22600 fluorescence intensity (a.u.).
The figure for “TGAAAGATTAGATTTATAAAGTTATCCTGTTGGATCAGAACGGAGTCACCTAGTGCAG” is 16000 fluorescence intensity (a.u.).
In the case of “TCAATATGATTTTAGTGATATTATAAATATGTCGCTGGTCCGGAGTCACCTAGTGCAG”, the binding signal was 4480 fluorescence intensity (a.u.).
The figure for “ATGATAGATAGATATAGATGAGCAGGTGGAAATGAATGTGCGGAGTCACCTAGTGCAG” is 27400 fluorescence intensity (a.u.); for “TAATTTGATTTGTTATTATAGTATAATAGTTGAGGAATGACGGAGTCACCTAGTGCAG” it is 17300 fluorescence intensity (a.u.).
As to “ATTGATTGGTCTATGAAAACAAGTTAGGCTCACATGCAACCGGAGTCACCTAGTGCAG”, the binding signal is 47900 fluorescence intensity (a.u.).
Next, “CAAAATTAAGTTTTAAATTTTAAATTTTGGCAGTGCCTGACGGAGTCACCTAGTGCAG”: 14800 fluorescence intensity (a.u.); “GTCTAATGTATAATCCATTATACCATGTCACTGACTTTGTCGGAGTCACCTAGTGCAG”: 4340 fluorescence intensity (a.u.).
Next, “ATGATTGAACATGAAACTTTAGACTTAAAATCACACATTACGGAGTCACCTAGTGCAG”: 35100 fluorescence intensity (a.u.); “AAGGGTAATTGTACGTGTGTTGTGAGTATCTATGTTTGTACGGAGTCACCTAGTGCAG”: 6180 fluorescence intensity (a.u.); “CAAAATATAATTGTCCAAACACAATTAAGATTGTAGCTTGCGGAGTCACCTAGTGCAG”: 16900 fluorescence intensity (a.u.).
Next, “ATTTAGATTCATTAACATCAATATAAATATGAAAGATGACCGGAGTCACCTAGTGCAG”: 3850 fluorescence intensity (a.u.); “GCGCAATTATAATGGATCAAATTATTGGAGTATGGACACCCGGAGTCACCTAGTGCAG”: 7360 fluorescence intensity (a.u.).
Turning to “GACGTTGATCTGCTAATGACATATCCAATCGATTACGGGACGGAGTCACCTAGTGCAG”, the binding signal is 3250 fluorescence intensity (a.u.).
As to “GATTAATTGACTGATTAATTAATTAATTAAATCTCCTCCTCGGAGTCACCTAGTGCAG”, the binding signal was 48100 fluorescence intensity (a.u.).
As for “ATTTGATAATAAATCAAGTCACGATAAAATAAATGATAATCGGAGTCACCTAGTGCAG”, the binding signal was 4950 fluorescence intensity (a.u.).
On to “CAGCTAACCTTAATGGACAATGACGATGTAACTGAACTGCCGGAGTCACCTAGTGCAG”, for which the binding signal was 7830 fluorescence intensity (a.u.).
Take “GCATATTCCTAATGACAATCACTGCTTTCTTTTGATACTGCGGAGTCACCTAGTGCAG”: the binding signal is 3670 fluorescence intensity (a.u.).
Next, “ATGTCAGGGCGGACGAATACTATATGCCACGTGAGCTAATCGGAGTCACCTAGTGCAG”: 6450 fluorescence intensity (a.u.); “ATTGATTTGAATTCCAAATTTGTAATGATGTTGATCACCTCGGAGTCACCTAGTGCAG”: 39400 fluorescence intensity (a.u.); “GCTTTATCCCGCCTTCAATCTGCCTCGATTGGATTGCTTCCGGAGTCACCTAGTGCAG”: 4280 fluorescence intensity (a.u.).
“TTTGATGAACTAGTTGATAGGTCCTTCTTGCAACCAACAGCGGAGTCACCTAGTGCAG”: the binding signal is 17100 fluorescence intensity (a.u.).
Turning to “GAGGATGATGATGATGATGAGTTCTCTCTTCACTTGCGTCCGGAGTCACCTAGTGCAG”, the binding signal was 6630 fluorescence intensity (a.u.).
Turning to “ATTTGCGCTACCAAGTGATTGACACTCCAGGGATCCTTGACGGAGTCACCTAGTGCAG”, the binding signal is 15400 fluorescence intensity (a.u.).
The figure for “TTTATCACTCAATTGACCCATCAATTCAGCTGGCTTACTCCGGAGTCACCTAGTGCAG” is 6200 fluorescence intensity (a.u.); for “CCATGATTAATTAATATTTAATAATAATATATGTTCTTCTCGGAGTCACCTAGTGCAG” it is 50700 fluorescence intensity (a.u.); for “TGAAAATCGCATACTAATTAGCTATTAGTCATGAGCTCTTCGGAGTCACCTAGTGCAG” it is 9100 fluorescence intensity (a.u.).
Consider “ACAAGTTGTAATTTATAGAGTGATATATTACATATTGATCCGGAGTCACCTAGTGCAG”, for which the binding signal is 9120 fluorescence intensity (a.u.).
